Reference: PubChem BioAssay AID2546 (National Center for Advancing Translational Sciences (NCATS), 2010)
The whole screen tested about 310,000 compounds, of which about 11,000 (3.5%) were called active. Inconclusive results, whose numbers are uncertain, are shown with a selection of clear calls. The call rests on the fitted dose curve; in most records, active means well fitted inhibition curve with a large enough effect; inconclusive means small, poorly fitted or top-dose-only effect, or effect the other way; inactive means flat fitted curve, though single readings scatter. Potencies of inconclusive entries are left out as doubtful fits.

Experiment: VP16 counterscreen qHTS for inhibitors of ROR gamma transcriptional activity;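 further: Gal4-VP16 expression switched on by copper sulfate through the metallothionein promoter; nearly all actives have a fitted effect of over 50% in size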
Conditions: Drosophila S2 Gal4-VP16 UAS-luciferase, luminescence, 20 h; activity, negative = inhibition: at 53.6 µM (top of the series)
On the % scale 0 is the no-effect control and ±100 the full control effect; potency means the concentration at half of the fitted maximal effect; tags describe the fitted curve by direction and shape.

Structure (SMILES)	activity, negative = inhibition	Potency
CC(=O)[C@H]1CC[C@@H]2[C@H]3CC=C4C[C@@H](O)CC[C@]4(C)[C@H]3CC[C@]12C	inactive: -1.04% [at 17 µM]	
O=S(=O)(c1cccc(NC(=S)N2CCN(c3ccc(F)cc3)CC2)c1)C(F)F		inconclusive [inhibitor, single point]
COC(=O)c1c(NC(=O)c2ccco2)sc(C(=O)Nc2ccc(F)cc2)c1C		inconclusive [inhibitor, single point]
O=C(Oc1ccccc1C(=O)Nc1ccccc1)c1ccc(Br)c([N+](=O)[O-])c1		inconclusive [inhibitor, single point]
O=C(NC(=S)Nc1ccccc1Br)C1CCC1		active: 5.01 µM
CCCc1nn(C)c2c(=O)[nH]c(-c3ccccc3OCC)nc12	inactive: -11.5%	
CCOC(=O)c1ccc(NC(=O)CSC2=NC(=O)C(CC)C(=O)N2)cc1 (stereo not drawn)	inactive: 3.88%	
CCc1nnc(NC(=O)c2ncc(Cl)c(Cl)c2Cl)s1		active: 3.98 µM
C=CCn1c(NCCOC)nc2c1c(=O)n(C)c(=O)n2C	inactive: 0.189%	
Cc1nc2c(c(C)nn2-c2ccccc2)c(C)c1CCC(=O)NCCCOC(C)C	inactive: -10.9%	
O=C(Nc1ccc(-c2nc3cc(NC(=O)c4cccs4)ccc3o2)cc1)c1cccs1		inconclusive [inhibitor, single point]
COc1cc(Br)cc(CNc2ccc(F)c([N+](=O)[O-])c2)c1O		inconclusive [inhibitor, single point]
O=C(NCc1ccccc1)c1csc2c1CCCCC2	inactive: 9.44%	
Oc1ccc(/C=N/Nc2nc(N3CCCC3)nc(N3CCCC3)n2)cc1O	inactive: -24.5%	
COc1cccc(/C=C/C(=C2/C(=O)N(c3ccccc3)N=C2C)c2ccccc2)c1OC		inconclusive [activator, single point]
CC(C)NC(=O)c1ccc(COc2ccc(C(C)(C)C)cc2)o1		inconclusive [inhibitor, single point]
Cc1cc(N2C(=O)C(O)=C(C(=O)c3ccc(C)o3)C2c2ccc(OCc3ccccc3)cc2)no1 (stereo not drawn)	inactive: 0.706%	
CCOC(=O)C1=C(c2ccccc2)NC(=S)NC1c1cccc([N+](=O)[O-])c1 (stereo not drawn)		inconclusive [inhibitor, single point]
O=C(C1CCC(CNc2nc(=S)[nH]c3ccccc23)CC1)N1CCN(c2ccccn2)CC1 (stereo not drawn)		inconclusive [inhibitor, single point]
CCOc1ccc(NC(=O)c2ccc(F)c(S(=O)(=O)N3CCN(c4ccccn4)CC3)c2)cc1		inconclusive [inhibitor, single point]
CCCCOc1ccc(OCCCC)c2c1NC1(N2)C(=O)N(C(C)=O)c2ccccc21	inactive: 1.74%	
C#CC[N+](C)(C)CCCCCCCC	inactive: -1.25%	
O=C1C(c2ccnc3ccccc23)=C(O)c2ccccc21		inconclusive [inhibitor, full curve]
COc1cccc(/C=N/NC(=O)c2cc3cc([N+](=O)[O-])ccc3s2)c1O		active: 2.51 µM

Structure (SMILES)	activity, negative = inhibition	Potency
Cc1ccc(Cl)cc1NC(=S)N/N=C/c1cccc2ccccc12		active: 2.51 µM
Cc1cccc(C)c1NC(=S)N/N=C/c1c(Cl)cccc1Cl		active: 2.51 µM
Cc1ccc(C=C2C(=O)c3ccccc3C2=O)s1		inconclusive [inhibitor, single point]
O=C(O)c1ccc(/C=C2\COc3ccccc3C2=O)cc1		active: 6.31 µM
CC1(C)C(=O)OC(/C=C\c2cccc([N+](=O)[O-])c2)C(C)(C)C1=O (stereo not drawn)	inactive: 6.75% [at 10 µM]	
COc1ccc2cc(C3(C)NC(=O)N(CC(=O)NCc4ccco4)C3=O)ccc2c1 (stereo not drawn)		inconclusive [inhibitor, single point]
Cc1ccc(Nc2nc3c(s2)CCC3)c(C)c1		inconclusive [inhibitor, single point]
CCC(Oc1ccc(Br)cc1Cl)C(=O)Nc1nnc(C2CC2)s1 (stereo not drawn)		inconclusive [inhibitor, single point]
C/C(=N\NC(=O)Cc1ccc(Cl)cc1)c1ccccc1O		active: 0.316 µM
O=C1NC(=Nc2ccccc2)S/C1=C/c1cccs1		inconclusive [activator, partial curve]
Cc1nc(-c2ccc(NC(=O)c3ccccc3)cc2)cs1	inactive: 5.49%	
Cc1ccccc1/C=N/n1c(C2CCCCC2)n[nH]c1=S		inconclusive [inhibitor, single point]
COC(=O)Nc1ccc(S(=O)(=O)N2CCC(C(=O)N(C)C3CCCCC3)CC2)cc1	inactive: 5.56%	
COc1cccc(C(=O)O/N=C(\N)c2ccncc2)c1OC	inactive: 2.8%	
Cc1cc(C)c(C(=O)COC(=O)c2cccc(S(=O)(=O)NCc3ccccc3)c2)cc1C		inconclusive [activator, single point]
Cc1ccsc1/C=N/Nc1ncc(Cl)cc1Cl		active: 5.01 µM
O=C(COC(=O)[C@@H]1CC(O)CN1S(=O)(=O)c1ccccc1[N+](=O)[O-])c1ccccc1 (stereo partly drawn)	inactive: -2.81%	
CCOc1ccc(NC(=S)N2CCCCCC2)cc1		inconclusive [inhibitor, single point]
O=C(NC(=S)Nc1ncc(Br)cc1Br)c1cncc(Br)c1		inconclusive [inhibitor, single point]
O=C(NC(=S)N1CCN(c2ccc([N+](=O)[O-])cc2)CC1)c1ccccc1		active: 0.562 µM
Cc1nc2ccccn2c1C(=O)N/N=C/c1ccc([N+](=O)[O-])cc1	inactive: 4.89%	
CC(C)(C)C1CCC2(CC1)C(C#N)=C(SCC(=O)Nc1ccccc1)NC(=O)C2C#N (stereo not drawn)		inconclusive [inhibitor, single point]
COc1ccc(NC(=S)N2CCC(c3nc4ccccc4[nH]3)CC2)c(OC)c1		inconclusive [inhibitor, partial curve]
CC(C(=O)Nc1cccc([N+](=O)[O-])c1)[n+]1ccccc1 (stereo not drawn)		inconclusive [inhibitor, single point]
